{"source": "the supplement of paper PMC8728848", "binders": {"B1": {"name": "SAOUHSC 00176 (Staphylococcus aureus) (protein)", "chain": "MSKILKCITLAVVMLLIVTACGPNRSKEDIDKALNKDNSKDKPNQLTMWVDGDKQMAFYKKITDQYTKKTGIKVKLVNIGQNDQLENISLDAPAGKGPDIFFLAHDNTGSAYLQGLAAEIKLSKDELKGFNKQALKAMNYDNKQLALPAIVETTALFYNKKLVKNAPQTLEEVEANAAKLTDSKKKQYGMLFDAKNFYFNYPFLFGNDDYIFKKNGSEYDIHQLGLNSKHVVKNAERLQKWYDKGYLPKAATHDVMIGLFKEGKVGQFVTGPWNINEYQETFGKDLGVTTLPTDGGKPMKPFLGVRGWYLSEYSKHKYWAKDLMLYITSKDTLQKYTDEMSEITGRVDVKSSNPNLKVFEKQARHAEPMPNIPEMRQVWEPMGNASIFISNGKNPKQALDEATNDITQNIKILHPSQNDKKGD"}}, "experiment_in_all_cases": "glycan array binding signal (z-score within array); higher = stronger binding", "settings_in_all_cases": "glycan notation: IUPAC condensed, linker removed", "key": {"[1]": {"target": "Man(a1-3)[Man(a1-6)]Man(a1-6)[Man(a1-3)]Man", "summary_of_the_method": "(§1)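 From the Consortium for Functional Glycomics database, 3228 arrays were curated, keeping only those whose protein sequence was available. Binding is given as a within-array Z-score averaged across arrays sharing a protein sequence and across linkers. Negative Z-scores can be read as non-binding.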"}, "[2]": {"target": "Man(a1-3)[Man(a1-6)]Man(a1-6)[Man(a1-3)]Man(b1-4)GlcNAc(b1-4)GlcNAc", "summary_of_the_method": "as §1"}, "[3]": {"target": "Man(a1-3)[Man(a1-6)]Man(b1-4)GlcNAc(b1-4)GlcNAc", "summary_of_the_method": "as §1"}, "[4]": {"target": "Man(a1-3)[Man(a1-6)]Man(b1-4)GlcNAc(b1-4)[Fuc(a1-6)]GlcNAc", "summary_of_the_method": "as §1"}, "[5]": {"target": "Man(a1-6)Man", "summary_of_the_method": "as §1"}, "[6]": {"target": "Man(b1-4)GlcNAc", "summary_of_the_method": "as §1"}, "[7]": {"target": "MurNAc(b1-4)GlcNAc", "summary_of_the_method": "as §1"}, "[8]": {"target": "Neu5Ac(a2-3)Gal", "summary_of_the_method": "as §1"}, "[9]": {"target": "Neu5Ac(a2-3)Gal(b1-3)GalNAc", "summary_of_the_method": "as §1"}, "[10]": {"target": "Neu5Ac(a2-3)Gal(b1-3)GalNAc(b1-3)Gal(a1-4)Gal(b1-4)Glc", "summary_of_the_method": "as §1"}, "[11]": {"target": "Neu5Ac(a2-3)Gal(b1-3)GalNAc(b1-4)Gal(b1-4)Glc", "summary_of_the_method": "as §1"}, "[12]": {"target": "Neu5Ac(a2-3)Gal(b1-3)GalNAc(b1-4)[Neu5Ac(a2-3)]Gal(b1-4)Glc", "summary_of_the_method": "as §1"}, "[13]": {"target": "Neu5Ac(a2-3)Gal(b1-3)GalNAc(b1-4)[Neu5Ac(a2-8)Neu5Ac(a2-3)]Gal(b1-4)Glc", "summary_of_the_method": "as §1"}, "[14]": {"target": "Neu5Ac(a2-3)Gal(b1-3)GalNAc6S", "summary_of_the_method": "as §1"}, "[15]": {"target": "Neu5Ac(a2-3)Gal(b1-3)GlcNAc", "summary_of_the_method": "as §1"}, "[16]": {"target": "Neu5Ac(a2-3)Gal(b1-3)GlcNAc(b1-2)Man", "summary_of_the_method": "as §1"}, "[17]": {"target": "Neu5Ac(a2-3)Gal(b1-3)GlcNAc(b1-2)Man(a1-3)[GlcNAc(b1-4)][Neu5Ac(a2-3)Gal(b1-3)GlcNAc(b1-2)Man(a1-6)]Man(b1-4)GlcNAc(b1-4)GlcNAc", "summary_of_the_method": "as §1"}, "[18]": {"target": "Neu5Ac(a2-3)Gal(b1-3)GlcNAc(b1-2)Man(a1-3)[Neu5Ac(a2-3)Gal(b1-3)GlcNAc(b1-2)Man(a1-6)]Man(b1-4)GlcNAc(b1-4)GlcNAc", "summary_of_the_method": "as §1"}, "[19]": {"target": "Neu5Ac(a2-3)Gal(b1-3)GlcNAc(b1-2)[Neu5Ac(a2-3)Gal(b1-3)GlcNAc(b1-4)]Man(a1-6)[Neu5Ac(a2-3)Gal(b1-3)GlcNAc(b1-2)Man(a1-3)]Man(b1-4)GlcNAc(b1-4)GlcNAc", "summary_of_the_method": "as §1"}, "[20]": {"target": "Neu5Ac(a2-3)Gal(b1-3)GlcNAc(b1-3)Gal(b1-3)GlcNAc", "summary_of_the_method": "as §1"}, "[21]": {"target": "Neu5Ac(a2-3)Gal(b1-3)GlcNAc(b1-3)Gal(b1-4)GlcNAc", "summary_of_the_method": "as §1"}, "[22]": {"target": "Neu5Ac(a2-3)Gal(b1-3)GlcNAc(b1-3)GalNAc", "summary_of_the_method": "as §1"}, "[23]": {"target": "Neu5Ac(a2-3)Gal(b1-3)GlcNAc(b1-6)GalNAc", "summary_of_the_method": "as §1"}, "[24]": {"target": "Neu5Ac(a2-3)Gal(b1-3)GlcNAc6S", "summary_of_the_method": "as §1"}, "[25]": {"target": "Neu5Ac(a2-3)Gal(b1-3)[Fuc(a1-4)]GlcNAc", "summary_of_the_method": "as §1"}, "[26]": {"target": "Neu5Ac(a2-3)Gal(b1-3)[Fuc(a1-4)]GlcNAc(b1-3)Gal(b1-3)[Fuc(a1-4)]GlcNAc", "summary_of_the_method": "as §1"}, "[27]": {"target": "Neu5Ac(a2-3)Gal(b1-3)[Fuc(a1-4)]GlcNAc(b1-3)Gal(b1-4)[Fuc(a1-3)]GlcNAc", "summary_of_the_method": "as §1"}, "[28]": {"target": "Neu5Ac(a2-3)Gal(b1-3)[GlcNAc(b1-6)]GalNAc", "summary_of_the_method": "as §1"}, "[29]": {"target": "Neu5Ac(a2-3)Gal(b1-3)[Neu5Ac(a2-6)]GalNAc", "summary_of_the_method": "as §1"}, "[30]": {"target": "Neu5Ac(a2-3)Gal(b1-3)[Neu5Ac(a2-6)]GlcNAc(b1-3)[Fuc(a1-3)[Gal(b1-4)]GlcNAc(b1-6)]Gal(b1-4)Glc", "summary_of_the_method": "as §1"}, "[31]": {"target": "Neu5Ac(a2-3)Gal(b1-3)]Neu5Ac(a2-3)Gal(b1-4)]GlcNAc", "summary_of_the_method": "as §1"}, "[32]": {"target": "Neu5Ac(a2-3)Gal(b1-4)Glc", "summary_of_the_method": "as §1"}, "[33]": {"target": "Neu5Ac(a2-3)Gal(b1-4)GlcNAc", "summary_of_the_method": "as §1"}, "[34]": {"target": "Neu5Ac(a2-3)Gal(b1-4)GlcNAc(b1-2)Man", "summary_of_the_method": "as §1"}, "[35]": {"target": "Neu5Ac(a2-3)Gal(b1-4)GlcNAc(b1-2)Man(a1-3)[GlcNAc(b1-4)][Neu5Ac(a2-3)Gal(b1-4)GlcNAc(b1-2)Man(a1-6)]Man(b1-4)GlcNAc(b1-4)GlcNAc", "summary_of_the_method": "as §1"}, "[36]": {"target": "Neu5Ac(a2-3)Gal(b1-4)GlcNAc(b1-2)Man(a1-3)[Neu5Ac(a2-3)Gal(b1-4)GlcNAc(b1-2)Man(a1-6)]Man(b1-4)GlcNAc(b1-4)GlcNAc", "summary_of_the_method": "as §1"}, "[37]": {"target": "Neu5Ac(a2-3)Gal(b1-4)GlcNAc(b1-2)Man(a1-3)[Neu5Ac(a2-3)Gal(b1-4)GlcNAc(b1-2)Man(a1-6)]Man(b1-4)GlcNAc(b1-4)[Fuc(a1-6)]GlcNAc", "summary_of_the_method": "as §1"}, "[38]": {"target": "Neu5Ac(a2-3)Gal(b1-4)GlcNAc(b1-2)Man(a1-3)[Neu5Ac(a2-6)Gal(b1-4)GlcNAc(b1-2)Man(a1-6)]Man(b1-4)GlcNAc(b1-4)GlcNAc", "summary_of_the_method": "as §1"}}, "note": "Some of the results follow."}
{"binder": "B1", "values": [{"measurement": "glycan array binding signal (z-score)", "setting": "[1]", "result": -0.002}, {"measurement": "glycan array binding signal (z-score)", "setting": "[2]", "result": -0.003}, {"measurement": "glycan array binding signal (z-score)", "setting": "[3]", "result": -0.123}, {"measurement": "glycan array binding signal (z-score)", "setting": "[4]", "result": -0.141}, {"measurement": "glycan array binding signal (z-score)", "setting": "[5]", "result": -0.086}, {"measurement": "glycan array binding signal (z-score)", "setting": "[6]", "result": 0.094}, {"measurement": "glycan array binding signal (z-score)", "setting": "[7]", "result": -0.1}, {"measurement": "glycan array binding signal (z-score)", "setting": "[8]", "result": -0.179}, {"measurement": "glycan array binding signal (z-score)", "setting": "[9]", "result": -0.087}, {"measurement": "glycan array binding signal (z-score)", "setting": "[10]", "result": -0.129}, {"measurement": "glycan array binding signal (z-score)", "setting": "[11]", "result": -0.122}, {"measurement": "glycan array binding signal (z-score)", "setting": "[12]", "result": 0.032}, {"measurement": "glycan array binding signal (z-score)", "setting": "[13]", "result": -0.118}, {"measurement": "glycan array binding signal (z-score)", "setting": "[14]", "result": -0.132}, {"measurement": "glycan array binding signal (z-score)", "setting": "[15]", "result": -0.106}, {"measurement": "glycan array binding signal (z-score)", "setting": "[16]", "result": -0.127}, {"measurement": "glycan array binding signal (z-score)", "setting": "[17]", "result": -0.089}, {"measurement": "glycan array binding signal (z-score)", "setting": "[18]", "result": 1.08}, {"measurement": "glycan array binding signal (z-score)", "setting": "[19]", "result": -0.122}, {"measurement": "glycan array binding signal (z-score)", "setting": "[20]", "result": -0.055}, {"measurement": "glycan array binding signal (z-score)", "setting": "[21]", "result": -0.08}, {"measurement": "glycan array binding signal (z-score)", "setting": "[22]", "result": -0.08}, {"measurement": "glycan array binding signal (z-score)", "setting": "[23]", "result": -0.111}, {"measurement": "glycan array binding signal (z-score)", "setting": "[24]", "result": -0.124}, {"measurement": "glycan array binding signal (z-score)", "setting": "[25]", "result": -0.157}, {"measurement": "glycan array binding signal (z-score)", "setting": "[26]", "result": -0.022}, {"measurement": "glycan array binding signal (z-score)", "setting": "[27]", "result": 0.023}, {"measurement": "glycan array binding signal (z-score)", "setting": "[28]", "result": 0.03}, {"measurement": "glycan array binding signal (z-score)", "setting": "[29]", "result": -0.11}, {"measurement": "glycan array binding signal (z-score)", "setting": "[30]", "result": -0.017}, {"measurement": "glycan array binding signal (z-score)", "setting": "[31]", "result": 0.023}, {"measurement": "glycan array binding signal (z-score)", "setting": "[32]", "result": -0.047}, {"measurement": "glycan array binding signal (z-score)", "setting": "[33]", "result": -0.091}, {"measurement": "glycan array binding signal (z-score)", "setting": "[34]", "result": 0.473}, {"measurement": "glycan array binding signal (z-score)", "setting": "[35]", "result": -0.093}, {"measurement": "glycan array binding signal (z-score)", "setting": "[36]", "result": -0.12}, {"measurement": "glycan array binding signal (z-score)", "setting": "[37]", "result": -0.119}, {"measurement": "glycan array binding signal (z-score)", "setting": "[38]", "result": 0.006}]}
